Laboratory results taken from the supplement of paper PMC11417369.
This is one part of the list.

Test system: PfSIP2 AP2 domain 1 (GST-tagged)
Assay: gcPBM binding intensity (ln(normalized median fluorescence intensity)); higher = stronger DNA binding
Outline: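 The highest Masliner-normalised natural-log median intensity across replicate spots of either probe orientation is reported as binding intensity. GST-tagged P. falciparum DNA-binding domains expressed in E. coli were applied for 1 h to an Agilent 4 × 180k array of primer-extended double-stranded 36-bp intergenic genomic probes plus negative controls, and bound protein was detected with Alexa488 anti-GST antibody and scanned at 488 nm.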

Sequence | gcPBM binding intensity (ln)
AAAGGGAATTATGGCTGTACGCATTTTATAAATAGC [XGTACX_site5878] | 7.2
TTGTTATTATATTACGCATGCATCATTTATTTGCAC [TGCATGCA_site525] | 8.27
TGCTGTATATTTTTCTGTACACATTTATATATTCCA [XGTACX_site6244] | 7.15
TTTTTTTTTCTTCTTTTCAAATTTAAGAAATTATAA [CACACA_negctrl_site18] | 6.83
AAGAATAAGAAGAAGGATCCCCTTCAAAAAAAAAAA [TGCATGCA_negctrl_site525] | 6.59
TATAAATAAAGATATACACACATATAAATATTTTTC [CACACA_site7798] | 6.87
TTGGTCTTTTAAAAAAGTACAAAAAAAAAAAAAAAA [XGTACX_site1665] | 7.55
GATAAATTAAGACACACACACATATATTTATTTATA [CACACA_site7789] | 7.12
AAAAAAGAACGCATAGTGCATATCTAAAAGATTTTT | 8.32
TAGTATTAGATATATACACACATATATACCTATAGA [CACACA_site7083] | 6.82
ATTTTTTTTTTTATAGTGGATCCACATTTGCCATTT [CACACA_negctrl_site1106] | 6.95
TTACGATCATCAATATGTACATATATATATATATAT [XGTACX_site4301] | 9.37
TATAAAAAAATATTATAATATATATATATATATATA [XGTACX_negctrl_site41] | 8.86
AATATTTATATTTACACACACATAATACATCTATGT [CACACA_site4187] | 7.06
TTTATAAAAATGAACACACACATATAAATATAAATA [CACACA_site7607] | 7.03
TTTTAAATATGAACATGTACATGTAAATTTACATGT [XGTACX_site4573] | 7.05
AATAATATATTTAGGGGTACATAATAATATATTTTA [XGTACX_site8366] | 7.02
AAAAATAGAATAAATACACACCCGTGTAACGGATTT [CACACA_site3372] | 6.46
TTTTAATTTATTAATTGTACATGTATTTTAAGATTA [XGTACX_site8417] | 6.82
TTATTATTAAAAAAAAGTACAGAATTGAATAATACA [XGTACX_site651] | 7.46
TAAACATTTGGCTGATGTACTTGCTACCTTAAATCA [XGTACX_site5514] | 6.63
ATTTTTGTGTATTAATGTACTTTATGCATATTTGAC [XGTACX_site3353] | 7.52

Sequence | gcPBM binding intensity (ln)
TATTTTTATAAGTAAAAGGAGCACAGTTAAAGGATC [XGTACX_negctrl_site362] | 8
CATTTAACATAAATTAAACACACAATATAATACATT [CACACA_site8333] | 7
AAAGATAAAATATTATGTACATATATATATATATAT [XGTACX_site5079] | 9.34
TGTATAAAAGTTTATACACACATTTGATATATTTCA [CACACA_site6606] | 6.93
TTTTTTTGTTGTTGTTGTACGATATTTTCCTTATCA [XGTACX_site2375] | 7
TATAAAAAAAACAAAAAAAAAAAAAAACAAAAAAAA [TGCATGCA_negctrl_site514] | 6.81
GGGAATATAAGTACACGATAATATGTGATAAGGTCT [CACACA_negctrl_site1502] | 7.17
TTTTATTTTTATTATACACACGCTTAATAAATGCAT [CACACA_site1751] | 6.89
GGGGGGATGAGATATTGTACTTTTTAGGAAAGTGTA [XGTACX_site2835] | 9.19
ATTAAATACATTAACACACACACAAATATATACATA [CACACA_site2881] | 7.09
AATAATAATACTAATCGTACGCATATTTTTCAAACC [XGTACX_site8055] | 7.08
CATGTTCATCAGAACGCACACATAATGGTTTACTTA [CACACA_site898] | 6.91
AAGAAAAAAAAAATTACACACTGCGCACATACACAA [CACACA_site6721] | 7.6
AGTAACTAATTAAATGCATGTCGATATATATTATAT [TGCATGCA_site1038] | 7.17
GTGTATATGTATATATGTACATAAATTTTTTTTTTT [XGTACX_site7083] | 7.02
GATACACCAAATAACTGTACGCACGTGTAATATTAA [XGTACX_site3441] | 7.38
ACTTATATAAAACATTAACACACAAAGAAAAAAAAT [CACACA_site8529] | 7.17
TATATATATATATATACACACATATATACCTATATA [CACACA_site6085] | 9.25
AAAAAAAAGTTAAGCACACACATGAATAAATAATAC [CACACA_site840] | 7.33
CCTAGAAAAGTATATACACACGCGCAAAATAAAATT [CACACA_site1413] | 7.09
TGAAAAAAAAAATACACACACGAGTTGTTATACATA [CACACA_site7486] | 6.66
ATTAAAAAAATTGGCACACATAAAAATATATAAAAA [CACACA_site2748] | 7.01
